# According to the supplement of paper PMC8728848:
# This is one part of the list.
# Legend:
# Assay in all cases: glycan array binding signal (z-score within array); higher = stronger binding
# Conditions in all cases: glycan notation: IUPAC condensed, linker removed
# [1] = target: GalNAc(b1-4)GlcNAc(b1-2)Man(a1-3)[GalNAc(b1-4)GlcNAc(b1-2)Man(a1-6)]Man(b1-4)GlcNAc(b1-4)GlcNAc
# Method in brief: (§1)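 The binding signal is a Z-score computed within each array. Data were drawn from 3228 arrays in the Consortium for Functional Glycomics database, restricted to those with a known protein sequence. Scores were averaged over arrays of the same protein sequence at different concentrations or buffers, and over linkers, and negative values can be taken as non-binding.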
# GalNAc(b1-6)GalNAc = target: GalNAc(b1-6)GalNAc
# Method in brief: as §1
# Glc(a1-4)Glc = target: Glc(a1-4)Glc
# Method in brief: as §1
# [2] = target: Glc(a1-4)Glc(a1-4)Glc(a1-4)Glc
# Method in brief: as §1
# Glc(a1-6)Glc(a1-6)Glc = target: Glc(a1-6)Glc(a1-6)Glc
# Method in brief: as §1
# [3] = target: Glc(a1-6)Glc(a1-6)Glc(a1-6)Glc
# Method in brief: as §1
# Glc(b1-4)Glc = target: Glc(b1-4)Glc
# Method in brief: as §1
# Glc(b1-6)Glc = target: Glc(b1-6)Glc
# Method in brief: as §1
# GlcA(b1-3)Gal = target: GlcA(b1-3)Gal
# Method in brief: as §1
# GlcA(b1-3)GlcNAc = target: GlcA(b1-3)GlcNAc
# Method in brief: as §1
# GlcA(b1-6)Gal = target: GlcA(b1-6)Gal
# Method in brief: as §1
# [4] = target: GlcNAc(a1-3)Gal(b1-4)GlcNAc
# Method in brief: as §1
# [5] = target: GlcNAc(a1-4)Gal(b1-3)GlcNAc
# Method in brief: as §1
# [6] = target: GlcNAc(a1-4)Gal(b1-4)GalNAc
# Method in brief: as §1
# [7] = target: GlcNAc(a1-4)Gal(b1-4)GlcNAc
# Method in brief: as §1
# [8] = target: GlcNAc(a1-4)Gal(b1-4)GlcNAc(b1-3)Gal(b1-4)Glc
# Method in brief: as §1
# [9] = target: GlcNAc(a1-4)Gal(b1-4)GlcNAc(b1-3)Gal(b1-4)GlcNAc
# Method in brief: as §1
# [10] = target: GlcNAc(a1-4)Gal(b1-4)GlcNAc(b1-3)Gal(b1-4)GlcNAc(b1-3)Gal(b1-4)GlcNAc
# Method in brief: as §1
# [11] = target: GlcNAc(a1-4)Gal(b1-4)GlcNAc(b1-3)Gal(b1-4)[Fuc(a1-3)]GlcNAc(b1-3)Gal(b1-4)[Fuc(a1-3)]GlcNAc
# Method in brief: as §1
# [12] = target: GlcNAc(a1-6)Gal(b1-4)GlcNAc
# Method in brief: as §1
# [13] = target: GlcNAc(b1-2)Gal(b1-3)GalNAc
# Method in brief: as §1
# [14] = target: GlcNAc(b1-2)Man(a1-3)[GlcNAc(b1-2)Man(a1-6)]Man(b1-4)GlcNAc(b1-4)GlcNAc
# Method in brief: as §1
# [15] = target: GlcNAc(b1-2)Man(a1-3)[GlcNAc(b1-2)Man(a1-6)]Man(b1-4)GlcNAc(b1-4)[Fuc(a1-6)]GlcNAc
# Method in brief: as §1
# [16] = target: GlcNAc(b1-2)Man(a1-3)[GlcNAc(b1-4)][GlcNAc(b1-2)Man(a1-6)]Man(b1-4)GlcNAc(b1-4)GlcNAc
# Method in brief: as §1
# [17] = target: GlcNAc(b1-2)[GlcNAc(b1-4)]Man(a1-3)[GlcNAc(b1-2)Man(a1-6)]Man(b1-4)GlcNAc(b1-4)GlcNAc
# Method in brief: as §1
# [18] = target: GlcNAc(b1-2)[GlcNAc(b1-4)]Man(a1-3)[GlcNAc(b1-4)][GlcNAc(b1-2)Man(a1-6)]Man(b1-4)GlcNAc(b1-4)GlcNAc
# Method in brief: as §1
# [19] = target: GlcNAc(b1-2)[GlcNAc(b1-4)]Man(a1-3)[GlcNAc(b1-4)][GlcNAc(b1-2)[GlcNAc(b1-6)]Man(a1-6)]Man(b1-4)GlcNAc(b1-4)GlcNAc
# Method in brief: as §1
# [20] = target: GlcNAc(b1-2)[GlcNAc(b1-6)]Man(a1-6)[GlcNAc(b1-2)Man(a1-3)]Man(b1-4)GlcNAc(b1-4)GlcNAc
# Method in brief: as §1
# [21] = target: GlcNAc(b1-2)[GlcNAc(b1-6)]Man(a1-6)[GlcNAc(b1-2)Man(a1-3)][GlcNAc(b1-4)]Man(b1-4)GlcNAc(b1-4)GlcNAc
# Method in brief: as §1
# GlcNAc(b1-3)Gal = target: GlcNAc(b1-3)Gal
# Method in brief: as §1
# [22] = target: GlcNAc(b1-3)Gal(b1-3)GalNAc
# Method in brief: as §1
# GlcNAc(b1-3)Gal(b1-4)Glc = target: GlcNAc(b1-3)Gal(b1-4)Glc
# Method in brief: as §1
# [23] = target: GlcNAc(b1-3)Gal(b1-4)GlcNAc
# Method in brief: as §1
# [24] = target: GlcNAc(b1-3)Gal(b1-4)GlcNAc(b1-3)Gal(b1-4)GlcNAc
# Method in brief: as §1
# GlcNAc(b1-3)GalNAc = target: GlcNAc(b1-3)GalNAc
# Method in brief: as §1
# GlcNAc(b1-3)Man = target: GlcNAc(b1-3)Man
# Method in brief: as §1
# [25] = target: GlcNAc(b1-3)[GlcNAc(b1-4)][GlcNAc(b1-6)]GlcNAc
# Method in brief: as §1
# [26] = target: GlcNAc(b1-3)[GlcNAc(b1-6)]Gal(b1-4)GlcNAc
# Method in brief: as §1
# [27] = target: GlcNAc(b1-3)[GlcNAc(b1-6)]GalNAc
# Method in brief: as §1
# [28] = target: GlcNAc(b1-4)Gal(b1-4)GlcNAc
# Method in brief: as §1
binder,measurement,setting,value
"Eosinophil cationic protein (ECP) (Homo sapiens), P12724 (protein) MVPKLFTSQICLLLLLGLMGVEGSLHARPPQFTRAQWFAIQHISLNPPRCTIAMRAINNYRWRCKNQNTFLRTTFANVVNVCGNQSIRCPHNRTLNNCHRSRFRVPLLHCDLINPGAQNISNCTYADRPGRRFYVVACDNRDPRDSPRYPVVPVHLDTTI",glycan array binding signal (z-score),[1],0.146
same,glycan array binding signal (z-score),GalNAc(b1-6)GalNAc,-0.334
same,glycan array binding signal (z-score),Glc(a1-4)Glc,-0.382
same,glycan array binding signal (z-score),[2],-0.327
same,glycan array binding signal (z-score),Glc(a1-6)Glc(a1-6)Glc,-0.359
same,glycan array binding signal (z-score),[3],-0.185
same,glycan array binding signal (z-score),Glc(b1-4)Glc,0.024
same,glycan array binding signal (z-score),Glc(b1-6)Glc,-0.124
same,glycan array binding signal (z-score),GlcA(b1-3)Gal,-0.238
same,glycan array binding signal (z-score),GlcA(b1-3)GlcNAc,-0.366
same,glycan array binding signal (z-score),GlcA(b1-6)Gal,-0.347
same,glycan array binding signal (z-score),[4],-0.358
same,glycan array binding signal (z-score),[5],-0.221
same,glycan array binding signal (z-score),[6],0.205
same,glycan array binding signal (z-score),[7],-0.091
same,glycan array binding signal (z-score),[8],0.59
same,glycan array binding signal (z-score),[9],8.33
same,glycan array binding signal (z-score),[10],0.357
same,glycan array binding signal (z-score),[11],4.18
same,glycan array binding signal (z-score),[12],3.15
same,glycan array binding signal (z-score),[13],-0.158
same,glycan array binding signal (z-score),[14],-0.403
same,glycan array binding signal (z-score),[15],0.236
same,glycan array binding signal (z-score),[16],-0.202
same,glycan array binding signal (z-score),[17],-0.197
same,glycan array binding signal (z-score),[18],0.079
same,glycan array binding signal (z-score),[19],0.22
same,glycan array binding signal (z-score),[20],-0.218
same,glycan array binding signal (z-score),[21],-0.355
same,glycan array binding signal (z-score),GlcNAc(b1-3)Gal,-0.238
same,glycan array binding signal (z-score),[22],0.129
same,glycan array binding signal (z-score),GlcNAc(b1-3)Gal(b1-4)Glc,-0.422
same,glycan array binding signal (z-score),[23],-0.132
same,glycan array binding signal (z-score),[24],-0.384
same,glycan array binding signal (z-score),GlcNAc(b1-3)GalNAc,-0.223
same,glycan array binding signal (z-score),GlcNAc(b1-3)Man,0.173
same,glycan array binding signal (z-score),[25],-0.322
same,glycan array binding signal (z-score),[26],-0.213
same,glycan array binding signal (z-score),[27],-0.275
same,glycan array binding signal (z-score),[28],0.075
